From PubChem BioAssay AID1508642 (National Center for Advancing Translational Sciences (NCATS), 2021) come the findings set out here.

The whole screen tested about 43,000 compounds, of which about 200 (0.47%) were called active. Roughly 12% stayed inconclusive and do not appear here. Calls come from the whole dose curve; as a rule, active = well fitted cell-killing curve with a large enough effect; inconclusive = small, poorly fitted or top-dose-only effect, or effect the other way; inactive = flat fitted curve, though single readings scatter. The list shows a part of the results.
% is set by controls: 0 for no effect and ±100 for the full control effect.

The experiment in a line: Cell viability qHTS assay in S16 Pmp22-F2sN cells. Note: nearly all actives have a fitted effect of over 65% in size. The settings on record: S16 Pmp22-F2sN Schwann cells (luciferase reporters placed in the Pmp22 gene) viability, CellTiter-Glo, 24 h; series mostly up to 57.5 µM; activity change, negative = cytotoxicity: at the top concentration. An outline of the steps: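 Rat S16 Schwann reporter line, 24 h treatment with library compounds delivered at 23 nL per well. Cell viability by CellTiter-Glo luminescence.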
`CCOc1ccc(C(=O)Nc2ccc3c(c2)CCCN3S(=O)(=O)c2ccc(C)cc2)cc1`: the “activity change, negative = cytotoxicity” value was inactive: -2.68%.
On to `CC1CCCCN1Cc1c(O)ccc2c(=O)c(-c3ccc(Cl)cc3)c(C(F)(F)F)oc12` (stereo unspecified), for which the “activity change, negative = cytotoxicity” value is inactive: -6.73%.
For the molecule `CC1=C(C(=O)OCc2ccc(C)cc2)C(c2ccccc2C(F)(F)F)CC(=O)N1` (stereo unspecified), the “activity change, negative = cytotoxicity” value is inactive: 3.22%.
Regarding `Cc1ccc(OCCSc2nc3ccccc3n2CC(=O)N2CCOCC2)cc1`, the “activity change, negative = cytotoxicity” value is inactive: 14.1%.
With `CCOC(=O)c1noc2ncn(CC(=O)Nc3ccc(F)cc3Cl)c(=O)c12` the figure was inactive: -0.705%; with `CCOc1ccc(NC(=O)CSc2nnc3scc(-c4ccccc4)n23)cc1`, inactive: 7.14%; with `COC(=O)c1c(NC(=O)c2ccc(Cl)c(Cl)c2)sc2c1CCCC2`, inactive: 9.49%.
For `COc1ccc(CNC(=O)c2cc(-c3ccc(Br)s3)nc3ccccc23)c(OC)c1`, the “activity change, negative = cytotoxicity” value was inactive: -3.38%.
For `Cc1ccc(-n2ncc(C(=O)Nc3ccc4c(c3)OCCO4)c2C2CCN(C(=O)OC(C)(C)C)CC2)cc1C`, the “activity change, negative = cytotoxicity” value is inactive: -24.6%.
For `CC1=C(C(=O)NCc2cccc(F)c2)C2(CCCCCC2)OC1=O`, the “activity change, negative = cytotoxicity” value is inactive: -17.6%.
`COc1ccccc1NC(=O)CC1Sc2ccc(C(F)(F)F)cc2NC1=O` (stereo unspecified): the “activity change, negative = cytotoxicity” value was inactive: 12.6%.
As for `CCOc1ccccc1CNC(=O)Cn1c(=O)c2cccn2c2ccc(F)cc21`, the “activity change, negative = cytotoxicity” value was inactive: -14.8%.
In the case of `COc1ccccc1N1CCN(C(=O)Cn2ncc3c2-c2cc(C)ccc2OC3)CC1`, the “activity change, negative = cytotoxicity” value is inactive: -21.5%.
Consider `COc1ccc(Nc2nc3ccc(C)cc3nc2-n2nc(C)cc2C)cc1Cl`, for which the “activity change, negative = cytotoxicity” value was inactive: 10.7%.
Regarding `COCCN1CCc2nc(SCC(=O)Nc3ccc(C)c(Cl)c3)[nH]c(=O)c2C1`, the “activity change, negative = cytotoxicity” value was inactive: 3.88%.
For the molecule `CCN(c1ccccc1C)S(=O)(=O)c1nnc(NC(=O)c2ccc(OC)c(OC)c2)s1`, the “activity change, negative = cytotoxicity” value was inactive: -3.12%.
Then `Cc1ccc(C2=Nc3ccccc3N=C(c3ccc(F)cc3)C2)c(O)c1`, with inactive: 4.26%; and `O=C(NCCSc1c[nH]c2ccccc12)c1ccc(Cl)cc1`, with inactive: -27.1%; and `Cc1ccc(N2CC(NC(=O)CCCc3ccccc3)CC2=O)cc1` (stereo unspecified), with inactive: 6.79%.
Turning to `COc1ccc(Cn2c(SCc3ccc(C(=O)NCc4ccc(C)cc4)cc3)nc3cccnc32)cc1`, the “activity change, negative = cytotoxicity” value was inactive: -15.3%.
In the case of `O=C(NCCc1ccccc1)c1ccc2c(c1)N(Cc1ccc(Cl)cc1)C(=O)c1ccccc1S2(=O)=O`, the “activity change, negative = cytotoxicity” value was inactive: 1.17%.
For `Cc1ccc(Cl)cc1N1CCN(c2nc3ccc(C(=O)c4ccccc4)cc3n3cnnc23)CC1`, the “activity change, negative = cytotoxicity” value was inactive: 1.63%.
`O=C(Cn1nc(Cc2cccnc2)c2ccccc2c1=O)N1CCN(c2ccccc2F)CC1`: the “activity change, negative = cytotoxicity” value was inactive: 10%.
`COc1ccc(CNC(=O)c2ccc(CN3C(=O)C(C)=C(c4ccc(C)cc4)S3(=O)=O)cc2)cc1`: the “activity change, negative = cytotoxicity” value was inactive: -4.06%.
With `CCc1nc(SC)ncc1C(=O)NCc1cccc(Br)c1` the figure was inactive: -0.951%; with `CCC1CCCCN1CCCNC(=O)c1ccc2c(c1)c(C)c(C)n2CC` (stereo unspecified), inactive: -6.28%; with `CCOC(=O)c1c(Nc2ccc(C)c(C)c2)nnc(-c2ccccc2)c1-c1ccccc1`, inactive: -20.9%.
`O=C(NCCc1ccccc1)c1c[nH]c2ccc(S(=O)(=O)Nc3ccc(F)cc3F)cc2c1=O`: the “activity change, negative = cytotoxicity” value is inactive: 1.52%.
As to `CCCC(=O)Nc1cc2nn(-c3ccc(OC)cc3)nc2cc1C`, the “activity change, negative = cytotoxicity” value was inactive: 5.76%.
Then `CCc1ccc(C(=O)c2cn(CC(=O)NCCc3ccccc3)c3nc(C)ccc3c2=O)cc1`, with inactive: 18.6%; and `COc1cccc(NC(=O)C2CCCN(c3ncnc4onc(-c5ccc(F)cc5)c34)C2)c1` (stereo unspecified), with inactive: -12.8%; and `COc1ccc(CNC(=O)CN2N=C(c3ccc(Cl)cc3)CCC2=O)cc1`, with inactive: -0.444%.
As for `COc1ccc(-c2nn(C)c3sc(C(=O)NCCN(C)C)cc23)cc1OC`, the “activity change, negative = cytotoxicity” value was inactive: -28.7%.
For `Cc1cc(C)c(NC(=O)Cn2c(=O)n(CCC(C)C)c(=O)c3cccnc32)c(C)c1`, the “activity change, negative = cytotoxicity” value was inactive: -11.3%.
Turning to `CCCCCCc1c(C)c2c(cc(C)c3c(C)coc32)oc1=O`, the “activity change, negative = cytotoxicity” value was inactive: 0.878%.
As for `Cc1ccc(C)c(NC(=O)Cn2ncc3c(C)n(Cc4ccc(F)cc4)c(C)c3c2=O)c1`, the “activity change, negative = cytotoxicity” value was inactive: 6.25%.
`CCn1nc(C)c2c(-c3ccccc3)cc(=O)n(C(C)C(=O)Nc3ccc(OC)c(OC)c3)c21` (stereo unspecified): the “activity change, negative = cytotoxicity” value was inactive: 24.8%.
Then `COc1ccc(C2C=C(c3ccccc3)Nc3nc(NC(C)=O)nn32)cc1` (stereo unspecified), with inactive: -21.3%.
Consider `Cc1cccc(NC(=O)Nc2cccs2)c1C`, for which the “activity change, negative = cytotoxicity” value is inactive: -6.02%.
For the molecule `O=C(CCc1cn(Cc2ccc(F)cc2)c2ccccc12)NC1CCCCC1`, the “activity change, negative = cytotoxicity” value was inactive: 2.57%.
On to `COc1ccc(-c2cc(C(F)(F)F)n3nc(C)c(-c4ccccc4)c3n2)cc1OC`, for which the “activity change, negative = cytotoxicity” value was inactive: 22.7%.
In the case of `N#C/C(=C\c1ccc(O)cc1)C(=O)NCC1CCCO1` (stereo unspecified), the “activity change, negative = cytotoxicity” value is inactive: 17.5%.
For the molecule `CC1=C(c2ccc(C)c(C)c2)S(=O)(=O)N(Cc2ccc(C(=O)NCc3ccccc3F)cc2)C1=O`, the “activity change, negative = cytotoxicity” value was inactive: -0.749%.
With `Cc1cc(C)cc(NC(=O)Cn2nnc(-c3ccccc3F)n2)c1`, the “activity change, negative = cytotoxicity” value was inactive: 12.1%.
For `Cc1ccc(CNC(=O)CSc2c(C)cnc3c2c(=O)n(C)c(=O)n3C)cc1`, the “activity change, negative = cytotoxicity” value was inactive: -0.791%.
For the molecule `CCOC(=O)N1CCc2c(sc3c2c(=O)n(-c2ccc(CC)cc2)c(=O)n3Cc2cccc(Cl)c2)C1`, the “activity change, negative = cytotoxicity” value was inactive: 9.5%.
For `CCC1CN(C(=O)N2CCC(C(=O)NCCc3ccc(OC)c(OC)c3)CC2)c2ccccc2O1` (stereo unspecified), the “activity change, negative = cytotoxicity” value is inactive: -0.259%.
Consider `CCn1cc(C(=O)OCC(=O)Nc2cc(Cl)ccc2C)c(=O)c2ccc(C)nc21`, for which the “activity change, negative = cytotoxicity” value is inactive: -0.51%.
With `Cc1ccc(NC(=O)C2CCN(S(=O)(=O)c3cccc4nsnc34)CC2)cc1`, the “activity change, negative = cytotoxicity” value is inactive: 15.9%.
As for `CCCCOc1ccc(C2C(=O)N(C3CCCCC3)CC(=O)N2C2CCCCC2)cc1` (stereo unspecified), the “activity change, negative = cytotoxicity” value was inactive: 3.37%.
Then `Cc1ccc(NC(=O)CN2C(=O)C(c3ccc(F)cc3)=NC23CCCCCC3)c(C)c1`, with inactive: 4.11%; and `Cc1ccc(C)c(N2CCN(C(=O)c3cc4cc5ccc(C)cc5nc4o3)CC2)c1`, with inactive: 6.57%.
With `Cc1coc2c1c(C)cc1oc(=O)c(CC(=O)NCCc3ccc(Cl)cc3)c(C)c12` the figure was inactive: 4.62%; with `O=C(NCCc1ccc(Cl)cc1)C(=O)NCC(c1ccco1)S(=O)(=O)c1ccccc1` (stereo unspecified), inactive: 6.71%; with `Cc1ccc(NC(=O)C(=O)NCC(c2cccnc2)N2CCN(C)CC2)cc1` (stereo unspecified), inactive: 7.82%.
As for `Cc1c(C(=O)NCc2ccccc2)oc2ccc(S(=O)(=O)N3CCC(C)CC3)cc12`, the “activity change, negative = cytotoxicity” value was inactive: 1.97%.
Regarding `COc1ccc(C)cc1NC(=O)c1ccc2nc(Cc3ccccc3)oc2c1`, the “activity change, negative = cytotoxicity” value was inactive: -18.1%.
Then `CCn1c2c(c(=O)n3ncc(C(=O)Nc4ccc(C(=O)OC)cc4)c13)CN(Cc1ccc(OC)cc1)CC2`, with inactive: -32.5%.
With `COc1ccc(CCNC(=O)c2c(O)nc3c(C)cccn3c2=O)cc1OC` the figure was inactive: -5.07%; with `COc1ccc(N2CCN(C(=O)CSc3nc4ccccc4nc3Cc3ccc(Cl)cc3)CC2)cc1`, inactive: 0.75%; with `Cc1c(C(=O)NCCc2ccc(Cl)cc2)cccc1-n1cnc2cccnc21`, inactive: -4.96%.
